Reference: publication PMC7819943, “Rice protein-binding microarrays: a tool to detect cis-acting elements near promoter regions in rice”
The list shows a part of the results.

What follows are sequences tested against T1, OsWOX13 (Oryza sativa, UniProt Q5QMM3 1-267) (assay: protein-binding microarray (RPBM); PBS, 2% BSA, 51.3 ng/ul salmon testes DNA, 50 uM zinc acetate, 200 nM TF, 25 C, 1 h; high values mean tight binding). Conditions: protein: recombinant; tags: N-terminal polyhistidine and DsRed monomer fusion (pET32a); label: CyDye5-dUTP incorporated in the synthesized complementary strand; 3' TTTTT single-stranded linker to array surface; dsDNA, one strand shown.
T1 sequence: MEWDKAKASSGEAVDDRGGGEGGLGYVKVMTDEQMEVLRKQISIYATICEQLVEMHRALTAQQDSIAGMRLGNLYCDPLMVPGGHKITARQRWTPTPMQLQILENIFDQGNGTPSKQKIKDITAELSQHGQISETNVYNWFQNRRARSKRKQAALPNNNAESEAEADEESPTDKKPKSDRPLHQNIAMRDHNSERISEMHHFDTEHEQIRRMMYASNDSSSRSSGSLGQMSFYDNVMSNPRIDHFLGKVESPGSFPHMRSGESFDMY
Summary of the method: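 Transcription factors were made in E. coli BL21-CodonPlus as N-terminal fusions to a polyhistidine tag and DsRed, then purified on Ni–NTA. After primer extension with Cy5-dUTP and blocking with 2% BSA, a custom Agilent array was exposed for 1 h at 25 °C to 200 nM protein in PBS, 2% BSA, salmon testes DNA and 50 µM zinc acetate. Washed arrays were scanned on an Axon 4000B, and the binding signal is per-feature fluorescence intensity in arbitrary units.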

Sequence	binding signal
AGACAAACTAATTGCACAGTTTGCATATAAATTGCGAGACCGGAGTCACCTAGTGCAG	24400 fluorescence intensity (a.u.)
ACTATAGATTTAATAAAACTAACTTGGTGTTATAAACATTCGGAGTCACCTAGTGCAG	4690 fluorescence intensity (a.u.)
ATCTTAATTTAAAATTTAGTGTTTATATTACTTGAACAAACGGAGTCACCTAGTGCAG	36000 fluorescence intensity (a.u.)
TTGAAGACGTACTAATTATACTCAAAACAAACAGAAGCAACGGAGTCACCTAGTGCAG	3500 fluorescence intensity (a.u.)
GAATTAATTAACAATATTGCTAAAGCTCACTGGGGCTGGGCGGAGTCACCTAGTGCAG	33400 fluorescence intensity (a.u.)
CGGCCCTAGTATACCATCAATCTAATCTAATGGTCGGATCCGGAGTCACCTAGTGCAG	3380 fluorescence intensity (a.u.)
TCTGATTAGTAAATTTCAAGCGAAAGGGACATTGCGGTAGCGGAGTCACCTAGTGCAG	36500 fluorescence intensity (a.u.)
AGGAAGTAATAGCTAATGATTTTGGACATGGTGAGTGAAGCGGAGTCACCTAGTGCAG	4310 fluorescence intensity (a.u.)
ACAGATAATTTTATAGCCTTATCGATTGGCATACGCTTATCGGAGTCACCTAGTGCAG	10000 fluorescence intensity (a.u.)
TCTAAATTAAACACGTCTAAGTTGCAAAAGCACAGTAATACGGAGTCACCTAGTGCAG	5340 fluorescence intensity (a.u.)
CTTTACATTAATTACTATCAGTTTCATCCATATCCTAATCCGGAGTCACCTAGTGCAG	7310 fluorescence intensity (a.u.)
GGGAGAGAGATCAATCAATATATATCTAGACCTGTATATCCGGAGTCACCTAGTGCAG	11600 fluorescence intensity (a.u.)
CGTTGCATTTATTAATTTACCTTTCTTCTTCTCACACAAGCGGAGTCACCTAGTGCAG	3470 fluorescence intensity (a.u.)
AACCATAGACGACCTTAATTAGCTCGATCTGCAAGCAATCCGGAGTCACCTAGTGCAG	16000 fluorescence intensity (a.u.)
TCCTTGATTAACATCGATAACCTTAAACAAATGAGCACACCGGAGTCACCTAGTGCAG	26300 fluorescence intensity (a.u.)
CCATTCAGTTTTGCTATATAATTGTCGATAAATTTTCTTCCGGAGTCACCTAGTGCAG	4590 fluorescence intensity (a.u.)
AAATATTAATTTGCACTATAAGTCATCTATTGATATGCATCGGAGTCACCTAGTGCAG	12500 fluorescence intensity (a.u.)
TTGATGGGGATTACAGTGAAGAATCTGATATTGATGAGGACGGAGTCACCTAGTGCAG	5240 fluorescence intensity (a.u.)
ACACTTGAAATACTTGGGCGGGTAGGATTGGGTCGGGCTCCGGAGTCACCTAGTGCAG	3180 fluorescence intensity (a.u.)
GACCAATTGATTTTGGAAAATCATGTTTTGCATTCCATGCCGGAGTCACCTAGTGCAG	33000 fluorescence intensity (a.u.)
ACACCATAATGGACACTAAATTACCATATCCTCAAGAAAACGGAGTCACCTAGTGCAG	14200 fluorescence intensity (a.u.)

Sequence	binding signal
TAGCTAGATTGATAATGTACATATATGAATTTGTATGCGACGGAGTCACCTAGTGCAG	55500 fluorescence intensity (a.u.)
ATCCGAACGAGCCCATAATTAGCGTGCATGTAACGTTGCTCGGAGTCACCTAGTGCAG	3650 fluorescence intensity (a.u.)
AGTTGCAAATTTTCATTCAATAACAAGCCTACCTACATGCCGGAGTCACCTAGTGCAG	3460 fluorescence intensity (a.u.)
TTGCGGTGAGTGATAGTGATTGGATTGGACACGTAAACGTCGGAGTCACCTAGTGCAG	46300 fluorescence intensity (a.u.)
TGTTGCTGTTTAATTTGCTGATGTCTCTGCCATGGCACCACGGAGTCACCTAGTGCAG	8640 fluorescence intensity (a.u.)
CCTTAATTATGCTCTCTCAATAAACGATGTGTCTGACTCCCGGAGTCACCTAGTGCAG	36500 fluorescence intensity (a.u.)
AACAATTTAACAACAAATCGAGTTAATGTTTCAGACGCGGCGGAGTCACCTAGTGCAG	3980 fluorescence intensity (a.u.)
CATGGTAAATTTATCGTTTTATGTTGATACCTCCTCGGCACGGAGTCACCTAGTGCAG	10600 fluorescence intensity (a.u.)
ATAATAATCTAACTTATAGATTATAATAATCTATTATAATCGGAGTCACCTAGTGCAG	10700 fluorescence intensity (a.u.)
AGTCAGCTGATTTAAATATAAACAGGGGTAAGAATTTAAGCGGAGTCACCTAGTGCAG	15000 fluorescence intensity (a.u.)
TATAATTAATTATTTGCTAGATTTCATTCATATGACAATTCGGAGTCACCTAGTGCAG	54600 fluorescence intensity (a.u.)
TGCATGGTAATATGATTTGACACGAAGGAAGGAAAGTAGACGGAGTCACCTAGTGCAG	4150 fluorescence intensity (a.u.)
AGAATATGATTTTAAAATTAATTTTAGGGGAGGGTTTTACCGGAGTCACCTAGTGCAG	26000 fluorescence intensity (a.u.)
TTCGGATTTTGATTGTGTTTCACATTTTCAAACCGCCAATCGGAGTCACCTAGTGCAG	11000 fluorescence intensity (a.u.)
CGGAATTGTAATTTTGTCAACTTGGGTCCCAGAGATACCTCGGAGTCACCTAGTGCAG	17100 fluorescence intensity (a.u.)
CGAGATTGCCACACAAATGGGCTTTAATTACTGGAGGCCACGGAGTCACCTAGTGCAG	29100 fluorescence intensity (a.u.)
ATGATGGGTTTATAATTTTACCTTTGAACAGTTCTTTGACCGGAGTCACCTAGTGCAG	12400 fluorescence intensity (a.u.)
TATGATTAAACTGCTTATTTATATATTATAACACTATAGTCGGAGTCACCTAGTGCAG	23700 fluorescence intensity (a.u.)
CATGGACTAATTAGGCCCAAAAGATTCGTTTTGCAATTTCCGGAGTCACCTAGTGCAG	8800 fluorescence intensity (a.u.)
TTAATTGATCTAATTTGGTGTTGTAAATATTAATATATTTCGGAGTCACCTAGTGCAG	15200 fluorescence intensity (a.u.)
TAGATTAATTTGTCATCAAAACACCCTCATATAATTAATTCGGAGTCACCTAGTGCAG	19200 fluorescence intensity (a.u.)
